The supplement of paper PMC11417369
This is one part of the list.

Test system: PF3D7_0420300 AP2 domain 1 (GST-tagged)
Assay: gcPBM binding intensity (ln(normalized median fluorescence intensity)); higher = stronger DNA binding
How it was run: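 An Agilent 4 × 180k array of primer-extended double-stranded 36-bp intergenic genomic probes, with negative controls, was incubated for 1 h with GST-tagged P. falciparum DNA-binding domains expressed in E. coli. Alexa488 anti-GST antibody detected bound protein, scanned at 488 nm. Binding intensity is the highest Masliner-normalised natural-log median intensity across replicate spots of either probe orientation.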

| Sequence | gcPBM binding intensity (ln) |
| --- | --- |
| TGTAATGTTTACAACACACAAATTAGAAATACAAAA [CACACA_site6924] | 9.34 |
| AAGGAAGATATATACACACATACAAATATATATATA [CACACA_site2181] | 9.8 |
| ACATATTTAAAAACATGTACAAATATATTTATAATT [XGTACX_site661] | 9.17 |
| ATATTTTATTTATATACACACACATATATATATTAT [CACACA_site8177] | 9.78 |
| TTCTTTATATACAAACCAAAATATTATGTATAATAA [CACACA_negctrl_site15] | 8.93 |
| CTTTATATAAAATAAAGTACATAAATTATGATATAT [XGTACX_site3699] | 9.09 |
| TAATTTTTTTTTATGATACACACTTGGATAATTAAA [CACACA_site562] | 9.07 |
| TTATTATATATTTTATTTATTAATAGTATATATTAT [TGCATGCA_negctrl_site155] | 9.18 |
| TTATTCTAGTAGTGTGTGCGCATGGACAATGCAATA | 9.52 |
| ATACATATAATATATGCATGTACCAATCAAATATAT [TGCATGCA_site192] | 9.17 |
| TATATATCGTTATATACACACATGTATATAAAAAAT [CACACA_site7501] | 9.58 |
| AATATTTGCCTATGTTGTACTGACATTTTTTTAAGT [XGTACX_site6836] | 9.43 |
| TATATACACATGCGCACACACAAGTGGGAAATTTGG [CACACA_site6930] | 9.71 |
| ATATATAATATATGATGTACTTAATAATTTTTTTTT [XGTACX_site5715] | 9.03 |
| TTAAGGATCCACGATACACACATATCATTCAACAAA [CACACA_site1924] | 9.43 |
| TAATAATCCACAAGCACACACACACCCATATATATA [CACACA_site1267] | 10 |
| TTAACCTTTATATAATACGTATCATCCTCATATATA [CACACA_negctrl_site86] | 9.34 |
| TGTATATATTTGTGCACACCAAAGTTTGATTTTATT [CACACA_site1860] | 9.74 |
| ATATAAAATCAACAAAAAAAAAAAATATATATATAT [XGTACX_negctrl_site251] | 9.08 |
| TTATATTTTTTAATTACACACAATTCTTATAAATAT [CACACA_site7870] | 9.35 |
| TATTATAACTAAAAAAATCACATAAAATACTTTATT [CACACA_negctrl_site2] | 9.1 |
| TTAAATTACTAATGTGCACACATACTAACGTTTAAA [CACACA_site3573] | 9.26 |
| TATCTTATTTTATCTCGTACATAAAATTAAAAAATT [XGTACX_site3636] | 8.99 |
| AATATGTATCCATACACACATACATTTTATTTGCAA [CACACA_site874] | 9.5 |
